B1: LINE1-full (parent)
chain: UACGUAGGUGGUUUUCCCCUGAUAGUGCUAAGGGGGCCUGGAAGUUUGGACUGGGCAGAGCUCAACACAGCGUGGCAAAGUGGCUGUGGCUAGACUGCCUCUCUGGAUUCCUCGUCACUCAGCAGGGCAUCUCUGAGAGAAAUGCC

The source gives no read counts; variants with many changes may rest on few reads.

The data set covers variants of B1. The data set is described as follows: self-cleavage, relative activity (ratio to wild type); higher = more cleavage; in vitro, sequencing; the parent is a self-cleaving ribozyme.
On to A24G G33A A69G U81A, for which the self-cleavage worked out at 0.82.

Take U23C G72A U73C C131A: the self-cleavage is 1.72.

Take A24G U52C U87C: the self-cleavage came to 1.38.

Turning to A22U U104C A140G, the self-cleavage came to 1.61.

Consider A22G U100C C116U A138G A140G, for which the self-cleavage is 0.96.

As for U23C A79U U134C, the self-cleavage came out at 2.35.

For the variant A22G U85C U109A G139A, the self-cleavage is 0.18.

As for U23C U45C A57G G89C, the self-cleavage came out at 0.

For A22U A59G A138G, the self-cleavage came out at 0.21.

For U23A A50U A121G, the self-cleavage worked out at 1.67.

In the case of U23A U47A C120U, the self-cleavage turned out to be 0.66.

Take A22U G35A A78G: the self-cleavage came out at 0.5.

For the variant A24G A31U C63A U85C, the self-cleavage amounted to 0.

Take A24U A50U G53A: the self-cleavage was determined as 0.63.

As to A22G U46G G89A, the self-cleavage was determined as 0.13.

Turning to A24G A65G U108C, the self-cleavage is 0.

In the case of A24G U62A A77G, the self-cleavage came to 0.06.

As to A24G A77G A129U, the self-cleavage was determined as 1.36.

On to U23C U46C A94G C123U A138G, for which the self-cleavage worked out at 0.51.

Regarding A22G G75C C99U, the self-cleavage was 0.31.

With A22G U108C A121U, the self-cleavage was 1.09.

Take U23G G36A U134C: the self-cleavage is 0.77.

For A22U A64G U81A, the self-cleavage was determined as 0.34.

Consider U23A U62C U100C A136G A138G, for which the self-cleavage was 0.

With A24U U73C A107G G144A, the self-cleavage turned out to be 1.38.

For the variant A24U U46A A50G U119A A124U U134C, the self-cleavage turned out to be 1.19.

With A22G U62C C71U, the self-cleavage is 0.04.

On to A22G U73C U132A, for which the self-cleavage amounted to 0.92.

U23C A65G A78G U119A: the self-cleavage came to 0.19.

As for U23A G34A U112C, the self-cleavage was found to be 1.42.

In the case of A24U A129G A141G, the self-cleavage was 1.25.

With U23C C61G U143C, the self-cleavage was found to be 0.18.

Consider A24G U52A G72A, for which the self-cleavage was determined as 1.23.

Consider A22U A67G U96C G127U, for which the self-cleavage worked out at 0.12.

Take U23C A43G A57G A141G: the self-cleavage is 1.31.

As to A22U G60A A136U, the self-cleavage worked out at 0.03.

With A24G U45G A124G, the self-cleavage amounted to 0.63.

For the variant A24G U45C A136G, the self-cleavage came to 0.61.

For A24U A65G G114A A138G, the self-cleavage is 0.09.

Turning to U23C U45C C71U G135A, the self-cleavage was determined as 1.83.

Turning to U23A A42U U46C, the self-cleavage was 1.47.

As to A22U A121G G122A A124G, the self-cleavage amounted to 0.74.

Regarding U23C A107U A138G, the self-cleavage was found to be 1.7.

As for A22G G80A U119C, the self-cleavage amounted to 1.96.

Take U23A U26C U39C: the self-cleavage amounted to 0.61.

Take A24G G75A A107G: the self-cleavage was found to be 1.43.

In the case of A24U U52A U132C, the self-cleavage was 2.46.

Regarding A22G U108C U134C A140G, the self-cleavage amounted to 1.08.

Take U23A A50C U108C A141G: the self-cleavage worked out at 0.57.

In the case of U23C U46C U143A, the self-cleavage came to 1.51.

As for A22U A107G U112C, the self-cleavage came out at 0.38.

U23C A142G U143A: the self-cleavage worked out at 1.1.

As to A22U U47C A140U, the self-cleavage was 0.52.

Consider A22G U23C A77U, for which the self-cleavage came to 2.12.

On to A22U U62C A142G, for which the self-cleavage stood at 0.09.

In the case of U23A U45G C76G U134C A140U, the self-cleavage stood at 2.58.

With A24G A57U A78G, the self-cleavage stood at 0.3.

A22U A69U C120A: the self-cleavage was determined as 0.07.

On to A24U G70A U102C A140G, for which the self-cleavage was 0.2.

On to A22G G74A U115C, for which the self-cleavage turned out to be 1.98.

For A22U A43G A64U U102C A138G, the self-cleavage worked out at 0.15.

In the case of A24G U26C C113A, the self-cleavage was determined as 1.09.

In the case of A24U U39A A42G A77U, the self-cleavage worked out at 0.99.

Take A24G U91C A142G: the self-cleavage is 1.41.

With A24G A50C A124U, the self-cleavage was 1.47.

Regarding U23A U104C C120U, the self-cleavage was 1.59.

With A22G U45C A64U U96G, the self-cleavage amounted to 0.46.

As to U23C A107G A121U U130C, the self-cleavage is 1.38.

Consider A24G A67G A124G, for which the self-cleavage was 0.64.

For the variant U23C U26C G72A A121G A141G, the self-cleavage came to 1.84.

Turning to A24G U26C A69G, the self-cleavage was 0.

Turning to U23C U26C U134A, the self-cleavage turned out to be 0.86.

As for A24U A43G A78G C113A, the self-cleavage came out at 0.9.

With A22G U47C U52A G105C, the self-cleavage is 1.7.

Take A22U A65G U112C C113U: the self-cleavage worked out at 0.

As to A24G A140U A142G, the self-cleavage is 0.99.

Consider A22U A42G U132C A142G, for which the self-cleavage is 1.84.

Take A24G A79U U108C A136G: the self-cleavage is 0.

Regarding A22G G126A A140G, the self-cleavage worked out at 1.18.

As to A22U U62C U143G, the self-cleavage was 0.06.

On to A24G A77G A78U, for which the self-cleavage was determined as 2.15.

As for U23C A57G A107G U112C, the self-cleavage stood at 2.3.

Take A24G A57G A69U A142G: the self-cleavage came to 0.3.

In the case of U23C U52C U104C, the self-cleavage worked out at 1.91.

With A22G U29A U47C, the self-cleavage amounted to 0.51.

Regarding A24G A59G C76U U104C, the self-cleavage was determined as 0.11.

As to A24U A64C A92G A138G, the self-cleavage is 0.

A24U C37U C84U: the self-cleavage came out at 0.05.

As to A24G U85C A124C, the self-cleavage turned out to be 0.

Regarding A22G U73A U87A U91C, the self-cleavage stood at 0.02.

For the variant A24G A30G U46C G88A U134C A142G, the self-cleavage amounted to 0.

For the variant A22U A57C U109C A124G, the self-cleavage stood at 0.

Regarding A22U A67U A117U A121G, the self-cleavage came to 0.29.

A24G U46C U47C A129G U143C: the self-cleavage worked out at 2.3.

Turning to A24U A94G C99A U102A, the self-cleavage was found to be 0.09.

On to U23A A69U A94G A129G, for which the self-cleavage worked out at 0.

Regarding U23C A77U A121G U132C, the self-cleavage is 1.84.

As to U23C A43G A121G, the self-cleavage turned out to be 1.72.

As for A24C A59G U119C A129G, the self-cleavage stood at 0.

A24G C71U A78G A121G: the self-cleavage turned out to be 0.57.

As to A24G A50G A65G U132C, the self-cleavage amounted to 0.

For A24G A50G U115C, the self-cleavage was found to be 2.63.

For A24G G70A A77C U81C A94G, the self-cleavage came to 1.31.

As for U23G A67U A78U, the self-cleavage is 0.3.

With U23C A57U A64G A107G U112C A117U A138U, the self-cleavage was 0.

On to A22G U52C U100A, for which the self-cleavage was 0.92.

Consider A24G U46C A117G, for which the self-cleavage was found to be 1.11.

Regarding A22G U26C C38U U130C A140U, the self-cleavage was found to be 1.61.

For the variant A24G C110U U112A, the self-cleavage came out at 0.77.

As for A24G G27A C38U G126C, the self-cleavage amounted to 1.06.

On to A22U U104C A124G U132C, for which the self-cleavage stood at 0.

U23A U87C A140C: the self-cleavage was 0.

As to A22U U29C U96C, the self-cleavage amounted to 0.66.

Take A24G U104A A121G A124G: the self-cleavage came to 0.69.

Consider A24G G35A A42G A94G A107G, for which the self-cleavage turned out to be 0.

On to A22U G60U C128U, for which the self-cleavage is 0.01.

Take A24G C116U A136G: the self-cleavage stood at 1.39.

For the variant A22U A77U A94U, the self-cleavage is 0.31.

On to A24G U46C U52C A78G A129U A140U, for which the self-cleavage is 1.7.

With U23C A42G U108C, the self-cleavage is 1.35.

With U23G C66U A140G, the self-cleavage came out at 0.06.

For the variant A22G G55A A117G U119C, the self-cleavage came out at 0.38.

Turning to A24U U47C U62C A94G A142G, the self-cleavage was determined as 0.

Turning to A22U U46C U62C C98U U132C, the self-cleavage was found to be 0.06.

Regarding A24G U104C A117C, the self-cleavage came out at 1.38.

For U23C A43G U62A, the self-cleavage was determined as 0.09.

Regarding A22G U62A A121G, the self-cleavage is 0.1.

Take A22U U104C U119A: the self-cleavage is 2.25.

For A24U U46C U85C U119C A136G, the self-cleavage stood at 0.57.

With U23C A31G G53U, the self-cleavage was 1.17.

With A24U U81C G114A, the self-cleavage turned out to be 1.84.

U23C U96C A138G: the self-cleavage came to 0.14.

In the case of A24U U39A U87C U96C A140G, the self-cleavage worked out at 0.

For A22G G89C A142C, the self-cleavage was determined as 0.17.

On to A24G C63A A107G, for which the self-cleavage amounted to 0.09.

As for U23C G58U A78G U115G, the self-cleavage came to 0.

U23C A30G A121U: the self-cleavage came to 1.01.

Regarding A22G U23A U85C A117U, the self-cleavage came out at 0.82.

In the case of U23C A67G A140U U143C, the self-cleavage amounted to 0.8.

With A22U A121G U132C, the self-cleavage turned out to be 1.31.

A22G U23C U45C U104A: the self-cleavage came to 0.

Regarding A22U A64U A67G A77G A78C, the self-cleavage was 0.

As for A24U U47A A57G U143C, the self-cleavage was found to be 0.33.

Regarding A24U U73A A124G A136G, the self-cleavage turned out to be 1.76.

On to A24G A30G G74A C116U, for which the self-cleavage was 0.85.

As to U23C A67U U115C U119C U130A, the self-cleavage was 0.4.

As for U23C A24G A42U U47A U134C G144A, the self-cleavage was 0.67.

A22G U96C U102C U112C A138U: the self-cleavage turned out to be 0.

Regarding A22U U46C A129U, the self-cleavage was 1.38.

Take A22U A78G A129G G137U A140U: the self-cleavage amounted to 2.22.

For A22G G74A U130C, the self-cleavage amounted to 1.3.

With A24G G35C A42U U102A, the self-cleavage came out at 1.16.

Consider A22G U119C A124G, for which the self-cleavage worked out at 0.46.

For the variant A24G A69U A77G U115A A138U A141G, the self-cleavage was 0.21.

For A24G A43U A57G, the self-cleavage was determined as 0.17.

On to A22U U45C A69C, for which the self-cleavage was determined as 0.17.

Turning to A24G G97A C131A, the self-cleavage is 0.13.

Regarding A24G A57G G88A A94G A124G, the self-cleavage came out at 0.

Consider A22G U73A A78G, for which the self-cleavage turned out to be 0.17.

U23A U73C U96C U104A: the self-cleavage turned out to be 0.

For U23C A77U A141U, the self-cleavage is 1.68.

For the variant A22G U81C U112C G127A A140G, the self-cleavage was found to be 0.88.

A24G A57G A64U: the self-cleavage amounted to 0.64.

In the case of A24G A57G A64G, the self-cleavage amounted to 0.36.

As to A24U A64G U87C, the self-cleavage turned out to be 0.

For A22U G40U U87C A140U, the self-cleavage came out at 0.21.

As for U23G A24U G72A A94G, the self-cleavage worked out at 0.45.

The values are drawn from the RNAGym collection of RNA variant scans (doi:10.7554/elife.90254).
